The supplement of paper PMC3334620
Over roughly 33,000 sequences, “E-score (-0.5 to 0.5)” has its median near -0.01; the highest 2% begin near 0.26. The list shows a part of the results.

The sequences below were run against Ste12 (UniProt P13574) (assay: PBM E-score (8-mer binding enrichment) (E-score (-0.5 to 0.5)); higher = stronger / more preferred TF binding; most listed sequences are background and not binding sites). Details: protein concentration: 200 nM; construct: GST-DNA-binding domain.
Procedure, shortened: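 Full-length yeast transcription factors or their DNA-binding domains, GST-tagged and expressed with PURExpress, were applied at about 100-200 nM to universal all-10-mer Agilent arrays. These arrays had been made double-stranded by primer extension on fresh or once-stripped slides. Detection used fluorescent anti-GST, normalisation used masliner, and E-scores for ungapped eight-base words pooled with reverse complements came from the Universal PBM Analysis Suite.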

Sequence	PBM E-score
CTCTAAGC	0.0232
ACAAAGAC	0.129
GCACGTAC	-0.0433
ACACTTTC	0.138
ATACAAAA	0.209
ATGCGAGC	-0.053
ACTCTGCT	-0.0783
CCACACTC	-0.13
TAACCAGA	-0.0548
ACTGCCAT	-0.0496
CGCTCCTC	-0.106
CTATGCAA	0.0788
CTCCAGTA	-0.0299
ACAATATA	0.271
ACGGTACC	0.0131
ATGTACAA	0.0988
CGACCAGC	-0.0957
CCACAACA	-0.00701
ACACCGGT	0.088
ACATGGAA	0.0849
GAGTCACA	-0.0446
AATTCCTA	0.148
CTAGGCAG	-0.0674
ACATTATC	0.127
ACAAAGAT	0.0339

Sequence	PBM E-score
AGGCTGTA	0.0827
CGTACCCC	-0.0545
GTCGCAAA	0.188
ATCCTCTC	-0.096
GGGAGGCA	-0.0116
GCACATCC	-0.0791
CGTTCCGA	0.00375
ACCCTACG	-0.202
AGTCATAC	-0.0518
ACCGGGAT	-0.0963
CGCCTAAC	0.177
CTGGAGTC	-0.208
CTCCAAGA	0.0165
CTACCGAA	-0.131
TACTGTCA	0.0452
AGGATTCA	0.042
CAACAATA	0.0548
ACCCCCCT	-0.175
GCCGATAC	-0.11
CGAAATGC	0.0117
CACGCATC	-0.0242
AACGAGTG	-0.115
TAACAGGA	0.0224
ATACTCCG	-0.0141
CCGGTTAG	-0.157

Sequence	PBM E-score
CGGCGCAG	-0.0193
ACCCTCAT	-0.228
AGTACCAC	-0.128
GCTAGTGA	-0.0131
CACTTCCG	0.00128
CGTATCGA	-0.0442
CGTGGGCA	-0.209
AACATTGA	0.0921
CCACTCGA	-0.0417
CGTGAGAA	-0.0592
CGCGGGAC	0.012
CATGGCAC	0.00858
AGTTAGTC	0.00462
ACGCAAGT	-0.0349
AGGAATGA	0.0707
GTGCGACA	0.0229
ACGTATAC	-0.0353
CTTTCCAC	-0.0397
AATTGCGC	0.0707
CATGGTAA	-0.0396
ACCCTCGT	0.0908
GGCTAGTA	0.166
AGTTAGGA	-0.101
ACTTCCCG	-0.0712
AGTCGGAC	-0.19

Sequence	PBM E-score
TACTATGA	0.219
GAGCGCTC	-0.148
ATACCGCG	0.0968
ATTTATTG	0.0911
ATAGAAAG	0.0458
GTTGGACA	-0.21
ATTGTGTC	0.214
CAATTCTC	0.00128
GATCTCGC	-0.162
AAGTAAGT	-0.0682
AACGGCAG	0.00383
ACTTATAC	0.0485
AAAGTTAA	0.224
CTGCCGCC	-0.248
GTTGCCTA	-0.0783
CAAGTTGA	0.0872
GACCATCA	-0.112
ATTTCGTA	0.101
CTTGAGAA	0.0914
GGAGTTTA	-0.0861
AACGTTCC	-0.0942
AACAGTAT	0.108
ACTTATGG	-0.157
CCATTGAG	-0.0139
GCTGGGTA	-0.162

Sequence	PBM E-score
ATGCACTC	-0.145
ACAGATAG	-0.1
AACTTCTC	0.0155
CCGATTTC	0.00173
CCCCGCCC	0.347
ATACCAAA	0.134
CATGCAGG	-0.19
CTTCGCCC	-0.173
AGTGATGC	-0.099
GTTGAATA	0.229
AAATCAGC	0.15
GAACAATC	-0.0608
CACCATCC	-0.144
CATCACAC	0.00751
AGATTGCT	-0.196
AGATACAC	0.0755
ACCGGGCT	-0.0606
GCCGATCA	0.0313
GATTCGAA	0.277
ACTAATTA	0.202
TGGACCAA	-0.0682
ATAGACAC	-0.141
CCAACCGG	-0.063
AGTTCCTC	-0.189
AGGCGAGC	-0.201

Sequence	PBM E-score
CACCGACG	0.052
GTTAGCAA	0.0401
GGGTATGA	0.178
CCAAAAGA	0.202
AGCCTCCT	-0.0314
ACCCTAGG	-0.0167
AATGGCTA	-0.0416
CCCATAAG	-0.00968
ACATGGGG	-0.0482
CCCGGCGG	0.0682
CGTCGTCC	-0.179
GCTAACAC	0.0192
CAACGCAA	0.0466
GGCGAACA	0.0197
CGTACCTC	-0.0676
ATTCGGCG	-0.0331
AGGCGTAT	0.0111
AAATGAGC	0.0671
ATATCCAC	0.161
AGGCAACC	-0.159
ATTAAAAA	0.295
ACGTTTTC	0.147
GTCTGAAC	0.114
AAGAATTC	0.165
AAGGCGAA	-0.101

Sequence	PBM E-score
GTCCGGCA	-0.0181
TCAAGTCA	0.0747
AAAGGCGC	-0.0771
CTCGCACC	-0.103
AACCAGGC	-0.0978
TCGTGAGA	-0.0655
GTACGGCA	-0.147
GCGGACCC	-0.0894
CAACGGAA	0.114
CACAAATG	0.0373
ACTAGACG	-0.0209
AGAGAGCG	-0.231
CACCAAGC	-0.0887
CAGTCCCC	-0.071
ATGGGGGC	-0.196
GGTCTGTA	0.0858
AAGAAGTA	0.0834
AAGATACA	0.151
ATATGGGG	0.0381
CAGATTGG	-0.233
GTCACGGA	-0.0756
ATATGAAC	0.154
ACCGGCAT	0.129
CCAGTGAC	-0.241
ACACCGGC	0.104

Sequence	PBM E-score
CGACTGTA	-0.219
AAGCAGTC	-0.00293
TATCCTAA	-0.106
TAGTAAAA	0.211
ATCAAGTA	-0.023
CCATACGA	-0.227
ACAATCTG	0.087
AGTATGTA	0.118
ACGCTAGA	-0.209
ACCGAGGA	0.0937
TAGTGCCA	-0.172
CTTCACTA	0.0616
GGGTGCAA	0.0253
TAAAGATA	0.137
GGGAAAGA	-0.129
CAAGGCGC	0.016
AAAATGCG	0.154
GTCAATGA	-0.0453
ACTGAGCT	-0.277
CTGAGATA	0.0495
AAAGACTT	0.0106
ACACCGGG	-0.0722
AGACTGGG	-0.0904
GCTTGAGA	0.001
AGTACGGC	-0.107

Sequence	PBM E-score
ATAGTTTA	0.0232
CTAGACGA	-0.0176
AAGTTTAC	0.00524
TATTCTGA	0.101
CTATGGAG	-0.199
AGACTGCG	-0.18
GATGACCC	-0.167
ACTCGAAC	0.0493
ATACCTAC	-0.0415
CCAGCTCC	-0.235
GAATTGCA	0.00577
TCCACGGA	0.0111
ATATGCCC	-0.203
AATCGTTA	-0.0373
CGTGATCA	-0.00817
AGGAACTA	-0.0651
ATGCCAGG	-0.189
ATAGGAAG	0.0065
CGGTCCAA	-0.216
CTATCATC	-0.029
ACTGAGGG	-0.101
CATACAGG	-0.0981
AGATGTAA	0.0636
CCCCTGAG	0.00996
ATAAAGCA	0.118

Sequence	PBM E-score
ATATCAAG	0.139
ACTGCCAC	-0.0138
AAGCATAC	0.00103
AGTCGTCC	-0.211
CCGCCACG	-0.00392
CACCGTTC	-0.191
ACTATGGG	-0.158
ACTTGGTC	-0.0079
GTTTTCAA	0.32
GGAGCATA	0.136
ACATGTCG	-0.0365
ATCATGGC	-0.0299
GGCGCTGA	-0.16
GGATCGCA	0.0402
CCAGGAGA	-0.24
CATGGAGA	-0.0888
CCTGATAA	-0.0419
CCCCTAAA	-0.0522
GGGTCCGA	-0.0934
TAACGGTA	-0.053
TACTTTGA	0.167
CCTAACAA	0.131
CATCGCTC	-0.184
GTATTAAA	0.166
CAGGCTGC	-0.135

Sequence	PBM E-score
TCGATACA	0.19
AAACTTAG	0.156
ATCTGCCC	-0.153
CGGAAAGC	-0.00012
CATAGATA	0.0703
TTCGCGAA	0.222
GGCGTACC	0.0594
CCAAGTGA	0.0804
ATCGCACC	-0.0585
AAGGTTCC	-0.0602
GTTTTGAA	0.189
GGCGGTAA	0.242
ATTAGGAG	0.144
CCGATAAC	0.0848
ACAGTGAT	0.203
AATGCGGG	0.17
ATGGAAGC	-0.06
CAGACATC	0.0108
ACGCTGCT	-0.154
GAACTAGA	0.0752
GGAGGAGA	-0.156
CAAATTGC	0.0765
CCTCCCAA	-0.136
CTTGAATA	0.0442
ATGGTGAG	-0.0881

Sequence	PBM E-score
GACCAGTC	-0.249
AGGACAGA	-0.107
GCTTCTAC	-0.114
AGCAATGG	-0.111
CTCCGATA	-0.139
AGTTGTAA	0.068
ATTTTATA	0.199
CCGGTGAC	-0.107
ACTAGCAC	-0.0863
ATTCCCAG	0.149
CCTTCAAA	0.107
AAGTAAAG	-0.0589
TAGGTAGA	0.0365
TTGTCAAA	0.00505
GTACTCAC	-0.1
AACCGTCA	-0.098
CTGGCGAC	-0.182
AACCTTCG	-0.00825
CGTCTCTA	-0.116
ATATGCTA	0.0341
GCAAATAA	0.146
CCCACTGA	-0.12
CCACAGCC	-0.137
CCCAGTCC	-0.165
CACAAAGG	-0.0142

Sequence	PBM E-score
AGCAGACA	-0.129
ACGGACAT	-0.176
GGTCGCGA	0.117
AGGGTGCC	-0.129
ATAGTCAA	0.0124
AATTCAAA	0.114
ACCAAGGG	0.0437
GGGTGTAA	0.0316
CCTCCTAG	-0.0138
AGGACTGG	-0.177
GTGACATA	0.214
CTCCAGAG	-0.117
ACTACCGA	-0.175
ATTCCGCG	0.139
AATATGAA	0.269
CTGCCTGA	0.124
AAGCCAGA	0.00304
AACCTAAT	-0.134
CAGCTCGG	-0.168
ACACGAAT	-0.0154
GTATCGGA	-0.0143
TCCACGCA	-0.0741
ACGTGACG	-0.00834
CTAGCAAC	-0.0574
GGACGCAC	-0.0385

Sequence	PBM E-score
GTAGAATA	0.249
TAGATGGA	-0.0808
GAGTCCGC	-0.0634
CACGGAAA	0.0417
ATCACAAT	0.0426
GGTATAAC	0.0578
ATCGGCGC	0.00224
ACGCCTCA	-0.0369
GCATTAAC	0.125
AGGAAGAC	-0.0549
ACACGATG	-0.198
AGCTCCAC	-0.176
AAATAAGG	0.148
TAGCGACA	-0.0752
CACCAGAG	0.108
AAGACGCA	-0.0206
AGTTTTAG	0.12
GTTACTTA	0.131
GCGCCCGA	0.0411
